Our source for the Kd values is patent publication US20220251191A1 (published 2022).

For orientation: Kd means the free concentration of one partner at which half of the binding sites on the other are occupied at equilibrium, for simple one-to-one binding. Low readings indicate tighter binding, high ones weaker binding.

For the experiment, the target named is T1, IL-15Rβ with 20 nM receptor γ (UniProt P14784 27-239; P31785 23-262).
T1 chain 1: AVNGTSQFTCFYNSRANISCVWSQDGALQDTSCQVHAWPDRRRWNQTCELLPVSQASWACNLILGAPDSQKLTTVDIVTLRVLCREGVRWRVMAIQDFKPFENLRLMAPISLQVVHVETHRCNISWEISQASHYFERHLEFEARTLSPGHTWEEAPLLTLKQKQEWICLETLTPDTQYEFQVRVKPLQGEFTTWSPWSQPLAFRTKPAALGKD
T1 chain 2: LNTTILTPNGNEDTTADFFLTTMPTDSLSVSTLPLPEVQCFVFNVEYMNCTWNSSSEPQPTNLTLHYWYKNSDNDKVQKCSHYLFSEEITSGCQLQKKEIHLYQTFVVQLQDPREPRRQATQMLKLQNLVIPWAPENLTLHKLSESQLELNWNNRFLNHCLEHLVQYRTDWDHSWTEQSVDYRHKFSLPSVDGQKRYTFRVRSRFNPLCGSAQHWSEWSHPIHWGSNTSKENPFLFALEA
The experiment in a line: TR-FRET; with gamma.

B1: IL-15 WT (in-house His6) (ligand)
chain: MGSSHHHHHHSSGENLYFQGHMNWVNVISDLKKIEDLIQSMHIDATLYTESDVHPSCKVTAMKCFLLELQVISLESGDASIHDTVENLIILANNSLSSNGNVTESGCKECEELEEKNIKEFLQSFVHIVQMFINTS
The molecule B1 returned a Kd of 3.61 nM. That is a single-digit nanomolar value.
